Among all 410,000 compounds or so, about 6,400 (1.6%) were called active. Inconclusive means that the source gave no clear call. Such entries were picked first, then a sample of the others. Calls follow the shape of the dose curve; as a rule, active = well fitted inhibition curve with a large enough effect; inconclusive = small, poorly fitted or top-dose-only effect; inactive = no such curve, though single readings can be large or run the other way. Where the call is inconclusive, the potency comes from a doubtful curve fit.
Target: Glucagon-like peptide 1 receptor (Homo sapiens) (UniProt P43220)
Assay: qHTS of GLP-1 Receptor Inverse Agonists (Inhibition Mode); also: nearly all actives have a fitted effect of over 55% in size
Conditions: HEK293 GLP-1R CRE-luciferase, luminescence, 24 h, GLP-1R form is constitutively active; activity change, negative = inhibition: at 38.3 µM (top of the series) unless noted
Outline: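 Constitutively active GLP-1R drives a cAMP-responsive luciferase in stably transfected HEK293 cells; test compounds are added after overnight (12 h) attachment and left 24 hr, and signal loss in luminescence marks inhibition.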
% is scaled to controls: 0 for no effect and ±100 for the full control effect; potency is read from the fitted curve at half-maximal effect; tags tell the direction and shape of the fitted curve.

Sequence of UniProt P43220 (P43220 whole entry, looked up): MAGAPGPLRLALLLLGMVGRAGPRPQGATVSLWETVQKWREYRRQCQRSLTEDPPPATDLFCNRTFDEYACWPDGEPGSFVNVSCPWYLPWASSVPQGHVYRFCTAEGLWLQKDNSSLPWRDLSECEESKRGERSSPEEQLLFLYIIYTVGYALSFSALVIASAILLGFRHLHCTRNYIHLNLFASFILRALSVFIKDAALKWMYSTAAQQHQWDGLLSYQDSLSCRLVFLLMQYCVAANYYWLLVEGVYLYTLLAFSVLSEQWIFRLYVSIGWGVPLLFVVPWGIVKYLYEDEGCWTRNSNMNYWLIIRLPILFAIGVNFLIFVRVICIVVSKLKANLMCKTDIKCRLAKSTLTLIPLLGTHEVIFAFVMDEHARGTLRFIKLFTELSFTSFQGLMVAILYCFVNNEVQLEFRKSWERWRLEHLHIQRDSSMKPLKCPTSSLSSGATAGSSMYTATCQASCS

Activity change, negative = inhibition, inconclusive:
c1ccc(CN2CCN(Cc3c[nH]c4ccccc34)CC2)cc1 -60.7% [inhibitor]

Activity change, negative = inhibition, inactive:
CCOc1cc2[nH]c(=O)n(CCCCC(=O)N3CCCCCC3)c(=O)c2cc1OCC 0.435%
CCC(Sc1nc2ccccc2[nH]1)C(=O)Nc1cc(C)on1 (centres undefined) -21.6%
COC(=O)C1=C(C)NC(C)=C(C(=O)OC)C1c1ccc(OC(=O)c2ccco2)cc1 23.4%
CN(C(=O)CSc1nnc(-c2ccccc2F)o1)c1ccccc1 20%
COc1cc(-c2ccno2)ccc1S(=O)(=O)N1CCN(c2ccc(C(C)=O)cc2)CC1 25%
O=C(Nc1cccnc1)c1cc(-c2cccnc2)nc2ccc(Br)cc12 30.5%
CCOc1ccc(OC(=O)c2cn(-c3ccc(C)cc3)c(=O)c3ccccc23)cc1 -18.1%
CCOc1ccccc1CN1CCC(N2CCC(C(=O)NC3CC3)CC2)CC1 -30.7%
O=S(=O)(c1ccc(SCCO)nc1)N1CCOCC1 2.6%
CC(C)C[C@H]1CNC(=S)N1CC1CCN(CC2CCC(C(C)(C)C)CC2)CC1 (some centres undefined) -15.6%
CCc1nc2sc(C#N)c(N)c2c2c1CCCC2 -0.0569%
Nc1nccnc1C(=O)OCC(=O)NC1CCCc2ccccc21 (centres undefined) 16.2%
O=C(Nc1cccc2ccccc12)c1ccc([N+](=O)[O-])cc1 -25.5%

Potency, inconclusive:
OCCCn1c(C2CCCN2c2nc(-c3ccc(F)cc3)cs2)nc2cc(Cl)c(Cl)cc21 (centres undefined) 28.2 µM [inhibitor, single point]
CSc1ncc(CN2CCc3c([nH]c4ccccc34)C2C(C)(C)C)cn1 (centres undefined) 11.2 µM [inhibitor, partial curve, poor fit]
FC(F)(F)c1ccccc1NC(=S)N1CCN(c2ccccn2)CC1 22.4 µM [inhibitor, single point]
CC(C)c1ccc(CCNC(=O)CSC(=S)N2CCCC2)cc1 11.2 µM [inhibitor, partial curve, poor fit]
Cc1ccc(C)c(S(=O)(=O)N2CCN(C(=O)Cc3ccccc3)CC2)c1 7.94 µM [inhibitor, partial curve, poor fit]
CCc1ccc(C(=O)Nc2ccc(OC)c(S(=O)(=O)N3CCCCC3)c2)cc1 5.62 µM [inhibitor, partial curve]
O=C(NCc1ccccc1)C(=O)NCC1OCCN1S(=O)(=O)c1ccc(Br)cc1 (centres undefined) 3.98 µM [inhibitor, partial curve]
O=C1NC(=S)SC1=Cc1ccc(Cl)cc1 28.2 µM [inhibitor, single point]
Cc1cc2nc(C3CCCCC3)c(Cc3ccccc3C(F)(F)F)n2c(C)c1Br 5.01 µM [inhibitor, partial curve, poor fit]
Cc1ccc(SCCN2CCN(Cc3ccccc3)CC2)cc1 28.2 µM [inhibitor, single point]
CN(CC(=O)Nc1ccc(Cl)c(C(F)(F)F)c1)C(=O)c1cc(=O)c2ccccc2o1 12.6 µM [inhibitor, partial curve, poor fit]
Cc1c(Cl)ccc2c(C(=O)O)cc(-c3ccccc3)nc12 25.1 µM [inhibitor, partial curve, poor fit]
CCN(CCCNC(=O)c1ccc2c(c1)NC(=O)CN2C)c1cccc(C)c1 8.91 µM [inhibitor, partial curve, poor fit]
O=C(N/N=C/c1ccc(O)cc1O)NC12CC3CC(CC(C3)C1)C2 5.62 µM [inhibitor, partial curve, poor fit]
CCCCC(=O)Nc1ccccc1C(=O)OCc1cc(=O)n2nc(C3CCCCC3)sc2n1 11.2 µM [inhibitor, single point]
O=C(Cc1ccc(Cl)c(Cl)c1)Nc1ccc(SC(F)F)cc1 4.47 µM [inhibitor, full curve, poor fit]
Cc1cc(C)c(NC(=O)C2CCCN2CCC(C)C)c(C)c1 (centres undefined) 28.2 µM [inhibitor, single point]
CN(C)c1ccc(N=Nc2nccs2)cc1 8.91 µM [inhibitor, partial curve, poor fit]
CN(CC(=O)Nc1sc2c(c1C#N)CCCCC2)Cc1nc2ccccc2c(=O)[nH]1 12.6 µM [inhibitor, single point]
Cc1nc2ccc(NS(=O)(=O)c3ccc(F)c(F)c3)cc2s1 28.2 µM [inhibitor, single point]
O=[N+]([O-])c1ccc(S(=O)(=O)Nc2cccc(-c3ccc(N4CCCC4)nn3)c2)cc1 11.2 µM [inhibitor, single point]
Cc1ccc(NC(=S)NCc2ccc(F)cc2)c(C)c1 12.6 µM [inhibitor, single point]
CC(C)(C)NC(=O)C(CCc1ccccc1)n1c(=O)c(-c2ccccc2)nc2ccccc21 (centres undefined) 28.2 µM [inhibitor, single point]
O=c1oc2ccccc2n1Cc1cccc(Cl)c1 28.2 µM [inhibitor, single point]
CN(C)c1ccc(C(CNC(=O)c2ccc(C(C)(C)C)cc2)N2CCOCC2)cc1 (centres undefined) 8.91 µM [inhibitor, single point]
CCCOc1cccc(C(=O)Nc2cccc(NC(=O)c3ccc(C(C)(C)C)cc3)c2)c1 6.31 µM [inhibitor, partial curve, poor fit]
Cc1[nH]c(C)c(C(=O)/C=C/c2ccc([N+](=O)[O-])cc2)c1C 28.2 µM [inhibitor, single point]
O=C(Nc1ccc(Cl)cc1F)c1ccc(COc2c(F)c(F)c(F)c(F)c2F)o1 10 µM [inhibitor, single point]
Fc1ccc(C(Nc2ccccn2)c2c[nH]c3ccccc23)cc1 (centres undefined) 3.98 µM [inhibitor, partial curve, poor fit]
CCN(CC)CCCn1c2c(c(SCC(=O)Nc3ccc4c(c3)OCO4)nc1=O)CCC2 10 µM [inhibitor, partial curve]
CN(C)c1ccc(/C=N/NC(=O)CCc2c[nH]c3ccccc23)cc1 28.2 µM [inhibitor, single point]
COC(=O)c1[nH]nc(C(=O)OC(C)(C)C)c1-c1ccccc1 28.2 µM [inhibitor, single point]
Cc1ccc(Cl)cc1N1CCN(CC(O)COC(C)C)CC1 (centres undefined) 10 µM [inhibitor, partial curve, poor fit]
CCC(C(=O)Nc1cc(Cl)ccc1OC)n1nc(-c2ccccc2)ccc1=O (centres undefined) 20 µM [inhibitor, single point]
CC1(C)CC2(CC(c3ccccc3F)c3cc(Cl)c(O)cc3O2)NC(=S)N1 (centres undefined) 22.4 µM [inhibitor, partial curve, poor fit]
Cc1ccc(C)n1-c1sc2c(c1C#N)CCC(C)C2 (centres undefined) 12.6 µM [inhibitor, single point]
COc1ccc(Br)cc1C=NNS(=O)(=O)c1ccc(C)cc1 7.08 µM [inhibitor, partial curve, poor fit]
CC(C)OCCCNC(=O)c1ccc2c(c1)N(Cc1c(F)cccc1Cl)C(=O)c1ccccc1S2 28.2 µM [inhibitor, single point]
O=C(NCC(c1ccco1)N1CCN(c2ccc(F)cc2)CC1)c1ccco1 (centres undefined) 31.6 µM [inhibitor, single point]
CCOC(=O)CC(NS(=O)(=O)c1ccc2[nH]c3c(c2c1)CCCC3)c1ccccc1Cl (centres undefined) 22.4 µM [inhibitor, single point]
Cc1cc(-n2c(SCC(=O)NCCC3=CCCCC3)nc3n[nH]c(C)c3c2=N)ccc1Cl 11.2 µM [inhibitor, partial curve, poor fit]
COc1ccc(C(=O)NCC(c2cccnc2)N2CCc3ccccc32)cc1 (centres undefined) 22.4 µM [inhibitor, single point]
Cc1ccc(-c2ccc(/C=N/NC(=O)Cc3nnc(N)s3)o2)cc1Cl 28.2 µM [inhibitor, single point]
Cn1c(C=O)c(C#Cc2ccccc2)c2ccccc21 10 µM [inhibitor, partial curve, poor fit]
O=C1N(Cc2cccc(Cl)c2)C[C@@H]2C[C@@H](c3c[nH]c4ccccc34)N3CCC[C@@]123 14.1 µM [inhibitor, partial curve, poor fit]
CC(C)(C)SCCNC(=O)CN1C(=O)c2ccccc2S1(=O)=O 7.94 µM [inhibitor, partial curve]
O=S(=O)(NCCSc1ccccc1)c1ccc2c(c1)OCCO2 10 µM [inhibitor, partial curve, poor fit]

Potency, active:
C#CCn1c(=NC(=O)c2ccc(S(=O)(=O)N3CCc4ccccc4C3)cc2)sc2cc(S(N)(=O)=O)ccc21 3.98 µM
Cc1ccc(S(=O)(=O)N2CCN(C(=O)CSc3ncc(C(F)(F)F)cc3Cl)CC2)cc1 10 µM
CC1=NN(C(=O)CSCc2ccccc2)C(O)(c2ccc(F)cc2)C1 (centres undefined) 7.94 µM

From PubChem BioAssay AID624417 (National Center for Advancing Translational Sciences (NCATS), 2012)
